# From PubChem BioAssay (NCATS)
# Inconclusive results, whose numbers are uncertain, are shown with a selection of clear calls. For some assays here: Potencies of inconclusive entries are doubtful fits and often do not repeat. Active and inactive are the calls of the source. Unless noted, calls come from the whole dose curve; as a rule, active = well fitted curve in the direction sought with a large enough effect; inconclusive = small, poorly fitted or top-dose-only effect, or another doubt; inactive = no such curve, though single readings can be large; an effect the other way counts as inactive or inconclusive.
# How the values were obtained:
# JEG-3 = assay: Primary qHTS to identify gynecologic anti-cancer compounds using libraries of approved drugs and bioactive compounds (AID 1345084); settings: Gynecologic cancer cell panel viability, ATPlite luminescence, 48 h; series mostly up to 57.5 µM; note: nearly all actives have a fitted effect of over 55% in size; note: potency is the fitted concentration of half-maximal effect
# Method in brief: (§1)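 Five-point cytotoxicity, 48 h drug exposure at 37 C, 5% CO2, on cells seeded 16 h beforehand. ATP content read by ATPlite luminescence.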
# [1] = Primary qHTS for inhibitors of nuclear receptor binding SET domain protein 2 (NSD2) in an isogenic RCH-ACV NSD2 p.E1099K mutant (9B) (AID 1645876); settings: activity change, negative = viability loss: at 44.9 µM (top of the series) unless noted; note: nearly all actives have a fitted effect of over 70% in size; note: potency is the fitted concentration of half-maximal effect
# [2] = Primary qHTS for inhibitors of nuclear receptor binding SET domain protein 2 (NSD2) in an RCH-ACV wild type WT cells (2C) (AID 1645877); settings: activity change, negative = cell killing: at 44.9 µM (top of the series) unless noted; note: potency is the fitted concentration of half-maximal effect; nearly all actives have a fitted effect of over 70% in size
# SKOV3 = assay: Primary qHTS to identify gynecologic anti-cancer compounds using libraries of approved drugs and bioactive compounds (AID 1345084); settings: Gynecologic cancer cell panel viability, ATPlite luminescence, 48 h; series mostly up to 57.5 µM; note: nearly all actives have a fitted effect of over 55% in size; note: potency is the fitted concentration of half-maximal effect
# Method in brief: as §1
# [3] = qHTS Assay for Identifying Gametocytocidal Compounds (AID 743244); note: potency is the fitted concentration of half-maximal effect; settings: P. falciparum 3D7 stage III-V gametocytes, alamarBlue, 72 h; max response: hits give low values
# Method in brief: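 Viability read-out was resazurin reduction (alamarBlue, 24 h) measured at Ex 525/Em 598 nm. Beforehand, late-stage (III-V) 3D7 P. falciparum gametocytes at 20,000 cells/well were incubated with compound 72 h at 37C under 5% CO2.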
# [4] = qHTS of pediatric cancer cell lines to identify multiple opportunities for drug repurposing: Primary screen for SK-N-MC cells (AID 1347093); settings: SK-N-MC viability, CellTiter-Glo luminescence, 48 h; activity change, negative = cytotoxic: at 46 µM (top of the series); note: potency is the fitted concentration of half-maximal effect
# Method in brief: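 Metabolically active cells were quantified by ATP-dependent luminescence (CellTiter-Glo, 15 min at room temperature) following 48 h treatment. Cells had been plated at 500-1,000 per well and settled for 5 h beforehand.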
# [5] = qHTS of pediatric cancer cell lines to identify multiple opportunities for drug repurposing: Primary screen for SK-N-SH cells (AID 1347098);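 note: DMSO served as neutral control and bortezomib at 2.3 µM as positive control; nearly all actives have a fitted effect of over 65% in size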
# Method in brief: (§2)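 Cells (500-1,000/well) rested 5 h, then received compounds for 48 h; metabolically active cells were measured by CellTiter-Glo luminescence. Final concentrations spanned up to 46 µM (MIPE, 11-point) or 0.59 nM-46 µM (NPC, 8-point) in primary screens, 11-point in follow-ups.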
# [6] = qHTS of pediatric cancer cell lines to identify multiple opportunities for drug repurposing: Primary screen for BT-12 cells (AID 1347101); note: potency is the fitted concentration of half-maximal effect; nearly all actives have a fitted effect of over 25% in size
# Method in brief: as §2
# [7] = qHTS of pediatric cancer cell lines to identify multiple opportunities for drug repurposing: Primary screen for OHS-50 cells (AID 1347103); settings: OHS-50 osteosarcoma viability, CellTiter-Glo luminescence, 48 h; activity change, negative = cytotoxic: at 57.3 µM (top of the series); note: potency is the fitted concentration of half-maximal effect; nearly all actives have a fitted effect of over 40% in size
# Method in brief: as §2
# [8] = qHTS of pediatric cancer cell lines to identify multiple opportunities for drug repurposing: Primary screen for Rh41 cells (AID 1347108); note: potency is the fitted concentration of half-maximal effect; nearly all actives have a fitted effect of over 70% in size
# Method in brief: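 500-1,000 cells/well; 5 h pre-incubation 37 °C/5% CO2; compound pinned; 48 h; CellTiter-Glo, 15 min RT; luminescence. MIPE 11-pt from 0.78 nM, NPC 8-pt from 0.59 nM final. Bortezomib 2.3 µM final as positive control.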
# [9] = test system: Zika virus NS2B-NS3 protease; assay: Primary screen GU AMC qHTS for Zika virus inhibitors (AID 1347154); note: nearly all actives have a fitted effect of over 70% in size
# Method in brief: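 Unlinked Zika NS2B hydrophilic domain/NS3 protease domain noncovalent complex (25 nM final) in 10 mM Tris-HCl pH 8.0, 0.01% Tween 20, with AMC peptide substrate. Fluorescence (ex 340, em 450 nm) change over 15 min, room temperature; percent inhibition fitted to 4-parameter Hill equation.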
# [10] = test system: Zika virus NS2B-NS3 protease (unlinked complex); assay: Primary screen GU Rhodamine qHTS for Zika virus inhibitors: Unlinked NS2B-NS3 protease assay (AID 1347159); settings: Recombinant ZIKV NS2B-NS3 protease, Rhodamine110 substrate fluorescence; series mostly up to 107 µM; note: potency is the fitted concentration of half-maximal effect; nearly all actives have a fitted effect of over 60% in size
# Method in brief: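 Enzyme 25 nM in Tris-HCl pH 8.0 + 0.01% Tween 20; compounds up to 114 microM, 15 min RT dark; + Rhod110 substrate 1.5 microM; read t0 and 15 min; delta fluorescence → % inhibition → 4-parameter Hill fit.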
# [11] = molecular target: Cytochrome P450 2C9 (Homo sapiens) (UniProt P11712); assay: Cytochrome P450 family 2 subfamily C member 9 (CYP2C9) small molecule antagonists: luciferase biochemical (cell-free) qHTS assay (AID 1645842; active = well fitted curve in the direction sought with a large enough effect in the repeat runs; inconclusive = weak or mixed curves; inactive = no such curve, though single readings can be large; an effect the other way counts as inactive or inconclusive; note: nearly all actives have a fitted effect of over 55% in size)
# Chain of UniProt P11712 (P11712 whole entry, looked up): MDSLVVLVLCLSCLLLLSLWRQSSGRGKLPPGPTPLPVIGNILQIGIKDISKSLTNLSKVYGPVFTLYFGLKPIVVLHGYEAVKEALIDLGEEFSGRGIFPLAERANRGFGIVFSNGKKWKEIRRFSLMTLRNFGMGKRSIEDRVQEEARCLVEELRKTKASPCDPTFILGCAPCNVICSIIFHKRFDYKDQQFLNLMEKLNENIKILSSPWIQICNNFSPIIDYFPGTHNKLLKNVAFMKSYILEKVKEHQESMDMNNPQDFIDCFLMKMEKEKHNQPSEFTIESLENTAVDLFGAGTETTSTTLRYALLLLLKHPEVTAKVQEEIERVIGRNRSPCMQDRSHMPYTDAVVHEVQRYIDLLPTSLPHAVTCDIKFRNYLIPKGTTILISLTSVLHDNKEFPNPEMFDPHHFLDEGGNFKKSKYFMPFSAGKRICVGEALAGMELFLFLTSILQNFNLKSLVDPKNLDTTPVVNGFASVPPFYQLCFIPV
# Method in brief: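 P450-Glo CYP2C9 system: proluciferin substrate with enzyme in mix containing 0.4% BSA, 10 min at room temperature, then NADPH regeneration solution added and incubated 1 h at 37C. Detection reagent stopped reaction; luminescence read after 20 min as RLU.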
# PA-1 = assay: Primary qHTS to identify gynecologic anti-cancer compounds using libraries of approved drugs and bioactive compounds (AID 1345084); settings: Gynecologic cancer cell panel viability, ATPlite luminescence, 48 h; series mostly up to 57.5 µM; note: nearly all actives have a fitted effect of over 55% in size; note: potency is the fitted concentration of half-maximal effect
# Method in brief: as §1
# [12] = test system: Zika virus NS2B-NS3 protease (linked construct); assay: Primary screen NINDS Rhodamine qHTS for Zika virus inhibitors (AID 1347160)
# Method in brief: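 Enzyme (25 nM, linked NS2B-NS3) was preincubated 15 min with compound in 10 mM Tris-HCl pH 8.0, 0.01% Tween 20. Rhodamine110 substrate (1.5 microM) was then added and fluorescence read at start and after 15 min.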
# [13] = Primary redox qHTS assay for identification of artifact compounds. (AID 1845223); note: potency is the fitted concentration of half-maximal effect
# Method in brief: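 Redox-cycling detection via DTT (250 uM final) oxidation coupled to Amplex Red (25 uM)/HRP (250 mU/mL) in HBSS. 15 min preincubation plus 30 min after DTT, room temperature. Ex/Em 525/598 nm; 4-parameter Hill fit against DMSO and 10 uM DA3003.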
# [14] = P-glycoprotein substrates identified in KB-8-5-11 adenocarcinoma cell line, qHTS therapeutic library screen (AID 1346987); settings: activity change, negative = cytotoxicity: at 44.5 µM (top of the series); note: nearly all actives have a fitted effect of over 65% in size
# Method in brief: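 Compounds are pinned in dose-response onto KB-8-5-11 cells (500 cells/well, colchicine-free medium) and left 72 h at 37 degree C. CellTiter-Glo luminescence then yields AC50 values.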
# [15] = Primary fluorescence-based thiol-reactive (MSTI) qHTS assay for identification of artifact compounds. (AID 1845221);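 note: potency is the fitted concentration of half-maximal effect; thiol-reactive compounds lower the probe fluorescence signal; nearly all actives have a fitted effect of over 65% in size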
# Method in brief: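 Thiol-reactive compounds detected by quenching of 4 uM MSTI fluorescence (525/598 nm) after 1 h room-temperature dark incubation in PBS pH 7.4, 2% DMSO. qHTS titration; percent inhibition Hill-fitted against Acetyl-MSTI/MSTI controls.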
# [16] = molecular target: Cytochrome P450 2D6 (Homo sapiens) (UniProt P10635); assay: Cytochrome P450 family 2 subfamily D member 6 (CYP2D6) small molecule antagonists: luciferase biochemical (cell-free) qHTS assay (AID 1645840; active = well fitted curve in the direction sought with a large enough effect in the repeat runs; inconclusive = weak or mixed curves; inactive = no such curve, though single readings can be large; an effect the other way counts as inactive or inconclusive)
# Chain of UniProt P10635 (P10635 whole entry, looked up): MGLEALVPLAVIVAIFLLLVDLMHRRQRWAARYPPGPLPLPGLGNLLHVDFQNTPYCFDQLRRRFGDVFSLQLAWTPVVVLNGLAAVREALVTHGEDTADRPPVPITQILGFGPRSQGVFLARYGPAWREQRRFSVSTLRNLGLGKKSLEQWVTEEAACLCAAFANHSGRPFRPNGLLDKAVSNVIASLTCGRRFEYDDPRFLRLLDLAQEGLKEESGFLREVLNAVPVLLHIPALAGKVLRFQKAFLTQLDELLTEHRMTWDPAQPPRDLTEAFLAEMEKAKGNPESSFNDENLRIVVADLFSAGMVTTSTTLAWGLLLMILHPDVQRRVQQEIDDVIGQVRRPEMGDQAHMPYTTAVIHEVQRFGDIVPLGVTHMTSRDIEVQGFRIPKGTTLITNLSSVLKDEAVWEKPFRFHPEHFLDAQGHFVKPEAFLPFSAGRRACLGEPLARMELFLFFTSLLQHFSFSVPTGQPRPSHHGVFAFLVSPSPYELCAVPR
# Method in brief: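 P450-Glo CYP2D6 system: proluciferin substrate converted by enzyme to luciferin, read by luminescence proportional to activity. Enzyme-substrate mix with compound 10 min at room temperature, then NADPH regeneration 1 h before detection reagent.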
# OV90 = assay: Primary qHTS to identify gynecologic anti-cancer compounds using libraries of approved drugs and bioactive compounds (AID 1345084); settings: Gynecologic cancer cell panel viability, ATPlite luminescence, 48 h; series mostly up to 57.5 µM; note: nearly all actives have a fitted effect of over 55% in size; note: potency is the fitted concentration of half-maximal effect
# Method in brief: as §1
# Tags give direction and shape of the fitted curve.
smiles,measurement,setting,value
C=C1[C@H]2[C@H](O[C@@H]3O[C@H](COC(=O)/C=C/c4cc(OC)c(O)c(OC)c4)[C@@H](O)[C@H](O)[C@H]3O)OC=C(C(=O)O)[C@H]2C[C@@H]1O,Potency,JEG-3,inactive
CCc1ccc(Cc2ccc3c(c2)[C@]2(OC3)O[C@H](CO)[C@@H](O)[C@H](O)[C@H]2O)cc1,Potency,[1],"inconclusive: 23 µM [inhibitor, single point]"
same,Potency,[2],"inconclusive: 16.3 µM [inhibitor, single point]"
same,Potency,JEG-3,inactive
same,Potency,SKOV3,inactive
CC[N+]1(CC)CCC(=C(c2ccccc2)c2ccccc2)C1C (stereo not given),Potency,[3],"inconclusive: 10 µM [inhibitor, partial curve]"
same,Potency,[4],active: 18.8 µM
same,Potency,[5],inactive
same,Potency,[6],"inconclusive: 12.3 µM [cytotoxic, partial curve]"
same,Potency,[7],"inconclusive: 15.5 µM [cytotoxic, partial curve, poor fit]"
same,Potency,[8],"inconclusive: 33.5 µM [cytotoxic, partial curve, poor fit]"
same,Potency,[9],inactive
same,Potency,[10],"inconclusive: 100 µM [inhibitor, single point]"
same,Potency,[11],inactive
same,Potency,[1],"inconclusive: 26.6 µM [inhibitor, single point]"
same,Potency,[2],"inconclusive: 23.7 µM [inhibitor, single point]"
same,Potency,JEG-3,"inconclusive: 12.6 µM [rising, partial curve, poor fit]"
same,Potency,PA-1,"inconclusive: 14.1 µM [cytotoxic, partial curve]"
same,Potency,SKOV3,"inconclusive: 39.8 µM [rising, partial curve, poor fit]"
CC(=O)OC1C[C@@]2(C)[C@@H](CC[C@@H](C)[C@]23Cc2c(O)cc4c(c2O3)CNC4=O)C(C)(C)[C@@H]1O (stereo not given in full),Potency,[12],"inconclusive: 3.98 µM [inhibitor, partial curve, poor fit]"
same,Potency,[13],"inconclusive: 13 µM [activator, partial curve, poor fit]"
same,Potency,JEG-3,inactive
same,Potency,SKOV3,"inconclusive: 3.98 µM [rising, single point]"
CC(C)=CCC/C(C)=C/CCC1(C)Oc2c(c(O)cc3c2CN(C(CCC(=O)O)C(=O)O)C3=O)CC1O (stereo not given),Potency,[14],inactive
same,Potency,[1],inactive
same,Potency,[15],"inconclusive: 1.3 µM [inhibitor, partial curve]"
same,Potency,JEG-3,inactive
CC(=O)N1CCN(Cc2ccc([C@H](C)Nc3nccc(N4C(=O)OC[C@@H]4C(C)C)n3)cc2)CC1,Potency,[16],"inconclusive: 21.3 µM [inhibitor, single point]"
same,Potency,[2],"inconclusive: 25.8 µM [inhibitor, partial curve, poor fit]"
same,Potency,[13],"inconclusive: 8.44 µM [activator, partial curve, poor fit]"
same,Potency,JEG-3,"inconclusive: 39.8 µM [cytotoxic, single point]"
same,Potency,OV90,inactive
same,Potency,PA-1,"inconclusive: 1.58 µM [cytotoxic, single point]"
C=C1C(O)C[C@@H]2C(C(=O)O)=CO[C@@H](O[C@@H]3O[C@H](CO)[C@@H](O)[C@H](O)[C@H]3OC(=O)c3ccc(O)cc3)[C@H]12 (stereo not given in full),Potency,[15],"inconclusive: 11.6 µM [inhibitor, partial curve, poor fit]"
same,Potency,JEG-3,inactive
